Source: PubChem BioAssay (NCI)
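Method: 48-hour compound exposure of cells in 96-well plates, five concentrations, linear interpolation of endpoints. GI50 is the concentration that inhibits growth by half. TGI marks complete inhibition of growth.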

Tested on: NCI-H322M lung
Assay: inhibition of tumour cell growth, NCI panel, 48 h

Compound | GI50 [nM] | TGI [µM]
COc1cccc(N2CCN(C3=C(Cl)C(=O)c4ncccc4C3=O)CC2)c1 | 15300 | 29.1
CCN(CC)CCN1C(=O)c2c(c3c4cc(Br)ccc4[nH]c3c3ccc4ccccc4c23)C1=O | 1540 | 2.95
O=S(=O)(Nc1ccc(-c2nc(-c3cccc(O)c3)c(-c3ccnc(Br)c3)[nH]2)cc1)c1ccccc1 | 2900 | 10.6
